# Source: the supplement of paper PMC11876631
# Residue numbers refer to the chain shown, from its start. Numbers in names are those of the source. ± gives the standard deviation of the averaged measurements. Laboratory Escherichia coli strains with one amino-acid change in an essential protein, pooled on minimal glucose agar with carbenicillin or gentamicin at twice the control MIC (plus kanamycin and chloramphenicol for the plasmids), 48 h. Fold change of barcode share against drug-free plates; higher = less susceptible. Active = above 20 in both replicates (the paper's putatively resistant). '<' = one read or none on drug, '>' = one read or none on a drug-free plate. Shares are relative, so most strains fall below 1 when a few take over. Listed are strains with at least 15 reads on both drug-free plates, and hits; most hits rest on fewer reference reads. Replicate rank correlation about 0.5. Edits are read from barcodes.
# B1: dapA L101Q (protein)
# chain: MFTGSIVAIVTPMDEKGNVCRASLKKLIDYHVASGTSAIVSVGTTGESATLNHDEHADVVMMTLDLADGRIPVIAGTGANATAEAISLTQRFNDSGIVGCQTVTPYYNRPSQEGLYQHFKAIAEHTDLPQILYNVPSRTGCDLLPETVGRLAKVKNIIGIKEATGNLTRVNQIKELVSDDFVLLSGDDASALDFMQLGGHGVISVTANVAARDMAQMCKLAAEGHFAEARVINQRLMPLHNKLFVEPNPIPVKWACKELGLVATDTLRLPMTPITDSGRETVRAALKHAGLL
# B2: dapA I203A (protein)
# chain: B1 chain with Q101L, I203A
# B3: dapB F76A (protein)
# chain: MHDANIRVAIAGAGGRMGRQLIQAALALEGVQLGAALEREGSSLLGSDAGELAGAGKTGVTVQSSLDAVKDDFDVAIDFTRPEGTLNHLAFCRQHGKGMVIGTTGFDEAGKQAIRDAAADIAIVFAANFSVGVNVMLKLLEKAAKVMGDYTDIEIIEAHHRHKVDAPSGTALAMGEAIAHALDKDLKDCAVYSREGHTGERVPGTIGFATVRAGDIVGEHTAMFADIGERLEITHKASSRMTFANGAVRSALWLSGKESGLFDMRDVLDLNNL
# B4: dapB F76W (protein)
# chain: B3 chain with A76W
# B5: dapB F76Q (protein)
# chain: B3 chain with A76Q
# B6: dapB F76D (protein)
# chain: B3 chain with A76D
# B7: dapB I77A (protein)
# chain: B3 chain with A76F, I77A
# B8: dapB I77W (protein)
# chain: B3 chain with A76F, I77W
# B9: dapB I101A (protein)
# chain: B3 chain with A76F, I101A
# B10: dapB I123A (protein)
# chain: B3 chain with A76F, I123A
# B11: dapB V124A (protein)
# chain: B3 chain with A76F, V124A
# B12: dapB V124Q (protein)
# chain: B3 chain with A76F, V124Q
# B13: dapB F224W (protein)
# chain: B3 chain with A76F, F224W
# B14: dapB I153A (protein)
# chain: B3 chain with A76F, I153A
# B15: dapB I153W (protein)
# chain: B3 chain with A76F, I153W
# B16: dapB I153Q (protein)
# chain: B3 chain with A76F, I153Q
# Target: Escherichia coli (laboratory strain)
# Assay: barcode share on antibiotic plates over drug-free plates; higher = less susceptible
# Experimental: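 A pool of E. coli strains, each edited to carry one amino-acid change in an essential protein, was grown for 48 h on minimal glucose agar with or without antibiotic; strain barcodes were sequenced; mean of two replicates.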
# [1] = antibiotic: carbenicillin, 2× MIC (3.1 µg/mL)
# [2] = antibiotic: gentamicin, 2× MIC (MIC 0.45 µg/mL)
Protein,fold change of barcode share [1],fold change of barcode share [2]
B1,> 40 [active],–
B2,0.307 ± 0.035,0.00683 ± 0.0042
B3,0.341 ± 0.23,< 0.00813
B4,0.256 ± 0.055,0.00544 ± 0.0017
B5,0.231 ± 0.13,< 0.0148
B6,0.938 ± 0.018,< 0.0105
B7,0.298 ± 0.0064,< 0.00429
B8,0.308 ± 0.017,0.0125 ± 0.00019
B9,0.422 ± 0.12,0.00557 ± 0.0022
B10,0.483 ± 0.11,0.0878 ± 0.042
B11,0.527 ± 0.094,< 0.0105
B12,0.406 ± 0.15,–
B13,0.351 ± 0.1,0.0315 ± 0.014
B14,0.398 ± 0.064,< 0.00523
B15,0.269 ± 0.087,< 0.00494
B16,0.305 ± 0.13,0.0113 ± 0.0022
